Experimental data from paper PMC4336329 (PLoS ONE, 2015).
The campaign covered roughly 310,000 compounds. About 2,200 (0.71%) showed an effect of 50% or more. Effects have a minus sign here. Some of the results follow.

Biological target: human ether-à-go-go-related gene (hERG) potassium channel (human, UniProt Q12809)
Assay: primary screen, population patch clamp on CHO cells stably expressing hERG

Sequence of human ether-à-go-go-related gene (hERG) potassium channel (Q12809 whole entry, looked up): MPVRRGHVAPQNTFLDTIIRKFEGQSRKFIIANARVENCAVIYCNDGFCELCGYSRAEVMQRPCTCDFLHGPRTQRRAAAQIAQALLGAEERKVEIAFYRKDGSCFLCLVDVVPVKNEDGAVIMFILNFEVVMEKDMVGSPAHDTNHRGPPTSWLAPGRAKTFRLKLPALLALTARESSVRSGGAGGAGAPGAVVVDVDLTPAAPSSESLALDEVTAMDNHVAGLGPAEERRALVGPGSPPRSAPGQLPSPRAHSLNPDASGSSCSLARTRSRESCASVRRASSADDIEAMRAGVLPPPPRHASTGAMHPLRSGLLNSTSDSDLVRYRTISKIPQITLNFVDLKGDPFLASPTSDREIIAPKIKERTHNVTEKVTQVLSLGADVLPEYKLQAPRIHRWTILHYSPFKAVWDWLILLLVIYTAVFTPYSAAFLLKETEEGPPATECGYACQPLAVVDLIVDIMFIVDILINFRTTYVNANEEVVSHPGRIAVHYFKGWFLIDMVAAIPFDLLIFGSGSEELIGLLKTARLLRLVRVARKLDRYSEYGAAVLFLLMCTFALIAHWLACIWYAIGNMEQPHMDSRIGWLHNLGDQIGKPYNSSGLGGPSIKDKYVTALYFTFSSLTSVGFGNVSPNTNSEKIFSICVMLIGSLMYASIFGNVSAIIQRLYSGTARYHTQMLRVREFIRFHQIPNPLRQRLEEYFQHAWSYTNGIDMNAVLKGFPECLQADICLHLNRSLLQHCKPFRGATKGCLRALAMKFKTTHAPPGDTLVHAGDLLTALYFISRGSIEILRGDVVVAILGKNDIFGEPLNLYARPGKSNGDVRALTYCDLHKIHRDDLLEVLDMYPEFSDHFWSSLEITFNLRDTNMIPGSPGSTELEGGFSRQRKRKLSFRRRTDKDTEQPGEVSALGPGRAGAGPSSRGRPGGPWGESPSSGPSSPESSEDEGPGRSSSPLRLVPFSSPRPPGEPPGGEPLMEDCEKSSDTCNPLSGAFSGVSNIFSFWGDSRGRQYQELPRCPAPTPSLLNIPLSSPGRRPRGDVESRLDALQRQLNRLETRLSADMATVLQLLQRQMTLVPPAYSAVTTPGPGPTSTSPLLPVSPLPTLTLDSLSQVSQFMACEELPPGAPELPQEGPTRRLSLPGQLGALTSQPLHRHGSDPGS

SMILES	hERG current change (%, negative = inhibition) at 1uM [%]
COc1ccc(C(=O)C(CCCCC(CN(C)C)C(=O)c2ccc(OC)cc2)CN(C)C)cc1.Cl (stereo not shown)	3.54
CCCNC(=O)c1ccc(Cn2c(=S)[nH]c3c([nH]c4ccc(OC)cc43)c2=O)cc1	-3.33
CC(CN1C(C)CCCC1C)OC(=O)c1ccc(F)cc1.Cl (stereo not shown)	14.8
Cc1cccc(S(=O)(=O)C(C#N)c2nc3ccccc3nc2N2CCOCC2)c1 (stereo not shown)	10.9
Cc1cc(C)nc(N/N=C/c2c(CO)cnc(C)c2O)n1	-2.09
CC(C)c1ccccc1N1CC(C(=O)O)CC1=O (stereo not shown)	20.7
O=C(Nc1ccccc1C(=O)Nc1ccncc1)c1cccc([N+](=O)[O-])c1	7.43
Brc1c(CSc2nncn2-c2ccccc2)nc2sccn12	9
COc1ccc(-c2nc(CSCC(=O)NCc3ccco3)c(C)o2)cc1	1.73
COc1ccc(C(CNC(=O)COc2ccccc2OC)N(C)C)cc1OC (stereo not shown)	12.2
COCCCNC(=O)C(=O)NC1CCCCCC1	13.5
O=c1cc(CSc2nnc(COc3ccccc3)n2-c2ccccc2)c2ccccc2[nH]1	3.81
C=C(C)CN(CC)C(=O)CC1C(=O)NCCN1CC(C)(C)C (stereo not shown)	12.5
O=C(/C=C/c1cccnc1)c1ccccc1O	12.8
Clc1ccc(CSc2nc3ccncc3[nH]2)cc1	6.98
CC(C)(Oc1ccc(Cl)cc1)C(=O)NCC(c1cccs1)N1CCOCC1 (stereo not shown)	6.3
NS(=O)(=O)c1cccc(NC(=O)/C=C/c2cccs2)c1	12.1
COc1ccc(C(CNC(=O)CCNC(=O)c2ccccc2Cl)N2CCCC2)cc1 (stereo not shown)	12.4
CSc1sc(C(=O)NCC2CC2)c2c1S(=O)(=O)N(C)c1ccccc1-2	6.81
Cc1cc(C)n2nc(C(=O)NNC(=O)c3ccc(Cl)cc3)nc2n1	3.63

SMILES	hERG current change (%, negative = inhibition) at 1uM [%]
CC(C)C[C@H](NC(=O)Nc1cccc(C(F)(F)F)c1)C(=O)O	8.2
COc1ccc(/C=N/N2CCN(C)CC2)cc1OC	15.8
CCC(=O)NC(c1ccc(OC)cc1)c1cc(Cl)c2cccnc2c1O (stereo not shown)	17.5
COc1ccc(CCC(=O)Nc2c(C)n(C)n(-c3ccccc3)c2=O)cc1	13.8
COc1cccc(C2=NN(C(=O)c3ccco3)C(c3ccco3)C2)c1 (stereo not shown)	11.4
Cc1ccc(NC(=O)Cc2nnc(SCC(=O)NC3=NCCS3)n2C)cc1	12.9
CCOC(=O)C1CCCCN1C(=O)CCc1c(C)nc2ncnn2c1C (stereo not shown)	11.5
O=C(COC(=O)c1cnccn1)NCc1ccccc1	11.1
COCCNC(=O)C1CCCN(S(=O)(=O)c2ccc3c(c2)CC(C)N3C(=O)C2CC2)C1 (stereo not shown)	6.1
CCN(CC)CCC(c1ccc2c(c1)OCO2)c1c(O)cc(OC)cc1OC (stereo not shown)	-73.4
CCn1cc(CCCC(=O)NCc2ccc(OC)cc2)c2ccccc21	15.1
CCOC(=O)c1c[nH]c(=O)c(Br)c1O	8.68
c1coc(-c2nnc3sc(Cc4cccs4)nn23)c1	-14.4
CC(OC(=O)c1nc(Cl)ccc1Cl)C(=O)NC1CCCCC1C (stereo not shown)	22
O=C(CSc1ccccc1)N1CCCC(N2CCN(c3ccc(F)cc3)CC2)C1 (stereo not shown)	-56
CCC(C)(C(=O)NC1CCCC1)N(C(=O)CC1NC(=O)NC1=O)c1ccc(C)cc1 (stereo not shown)	3.97
Cc1cccc(OCC(=O)Nc2ccc(C(=O)NCC(C)C)cc2)c1	4.42
CCOC(=O)c1ccc(N2C(=O)c3n[nH]c(C)c3C2c2ccccn2)cc1 (stereo not shown)	8.72
Cc1ccc(-n2c(SCC(=O)OC(C)C)nnc2-c2cnccn2)cc1	8.6
Cc1ccc(C)c(OCCC(=O)Nc2cccc(S(=O)(=O)N3CCCCC3)c2)c1	-1.07

SMILES	hERG current change (%, negative = inhibition) at 1uM [%]
CC(C)C(=O)Nc1nnc(SCC(=O)N2c3ccccc3CC2C)s1 (stereo not shown)	8.12
COc1ccc(Cl)cc1NC(=O)Cc1c(F)cccc1Cl	6.41
Cc1onc(-c2ccccc2)c1C(=O)n1nnc2ccccc21	8.95
COc1cc2cc(C(c3nnnn3C3CCCCC3)N(C)C3CCCCC3)c(=O)[nH]c2cc1OC (stereo not shown)	2.42
O=C(O)C1=C[C@H](c2coc3ccccc3c2=O)C[C@H](OCCCCO)O1	12.3
CCC(C)NC(=O)NCc1ccccc1F (stereo not shown)	11.2
COC(=O)C1=C(C)N(Cc2ccccc2)C(=NCc2ccccc2)N[C@H]1c1cccc(F)c1	11.8
Oc1cccc(/C=N\Nc2nncc(-c3ccccc3)n2)c1	7.67
CC(C)(Oc1ccc(Cl)cc1)C(=O)NC1CC1	-0.896
CCN(CC)S(=O)(=O)c1ccc(OC)c(NC(=O)Cn2cnc3c2c(=O)n(C)c(=O)n3C)c1	-13.4
Cn1c(=O)c(=O)n(C)c2cc(S(=O)(=O)N3CCC(Cc4ccccc4)CC3)ccc21	-6.29
Cn1c(CNC(=O)c2ccccc2F)nnc1SCc1ccc(Cl)cc1	3.8
CCc1nn2c(=O)c(S(=O)(=O)Nc3ccc(C(C)C)cc3)c(C)nc2s1	6.3
Cc1onc(-c2ccccc2Cl)c1C(=O)NNC(=O)c1cccc(F)c1	12.2
C=CCn1c(N)c(C(=O)Nc2ccccc2)c2nc3ccccc3nc21	11.6
CCOc1ccccc1CNS(=O)(=O)c1cnc[nH]1	8.02
Cc1nonc1C(=O)N/N=C/c1ccc([N+](=O)[O-])o1	-12.9
COc1ccc(/C(C)=N/NC(=O)CNC(=O)/C=C/c2ccccc2OC)cc1	7.47
